# In all, about 310,000 compounds went through this assay and about 2,200 (0.71%) showed an effect of 50% or more. Effects have a minus sign here. The list shows a part of the results.
# Target: human ether-à-go-go-related gene (hERG) potassium channel (human, UniProt Q12809)
# Assay: primary screen, population patch clamp on CHO cells stably expressing hERG
# Chain of human ether-à-go-go-related gene (hERG) potassium channel (Q12809 whole entry, looked up): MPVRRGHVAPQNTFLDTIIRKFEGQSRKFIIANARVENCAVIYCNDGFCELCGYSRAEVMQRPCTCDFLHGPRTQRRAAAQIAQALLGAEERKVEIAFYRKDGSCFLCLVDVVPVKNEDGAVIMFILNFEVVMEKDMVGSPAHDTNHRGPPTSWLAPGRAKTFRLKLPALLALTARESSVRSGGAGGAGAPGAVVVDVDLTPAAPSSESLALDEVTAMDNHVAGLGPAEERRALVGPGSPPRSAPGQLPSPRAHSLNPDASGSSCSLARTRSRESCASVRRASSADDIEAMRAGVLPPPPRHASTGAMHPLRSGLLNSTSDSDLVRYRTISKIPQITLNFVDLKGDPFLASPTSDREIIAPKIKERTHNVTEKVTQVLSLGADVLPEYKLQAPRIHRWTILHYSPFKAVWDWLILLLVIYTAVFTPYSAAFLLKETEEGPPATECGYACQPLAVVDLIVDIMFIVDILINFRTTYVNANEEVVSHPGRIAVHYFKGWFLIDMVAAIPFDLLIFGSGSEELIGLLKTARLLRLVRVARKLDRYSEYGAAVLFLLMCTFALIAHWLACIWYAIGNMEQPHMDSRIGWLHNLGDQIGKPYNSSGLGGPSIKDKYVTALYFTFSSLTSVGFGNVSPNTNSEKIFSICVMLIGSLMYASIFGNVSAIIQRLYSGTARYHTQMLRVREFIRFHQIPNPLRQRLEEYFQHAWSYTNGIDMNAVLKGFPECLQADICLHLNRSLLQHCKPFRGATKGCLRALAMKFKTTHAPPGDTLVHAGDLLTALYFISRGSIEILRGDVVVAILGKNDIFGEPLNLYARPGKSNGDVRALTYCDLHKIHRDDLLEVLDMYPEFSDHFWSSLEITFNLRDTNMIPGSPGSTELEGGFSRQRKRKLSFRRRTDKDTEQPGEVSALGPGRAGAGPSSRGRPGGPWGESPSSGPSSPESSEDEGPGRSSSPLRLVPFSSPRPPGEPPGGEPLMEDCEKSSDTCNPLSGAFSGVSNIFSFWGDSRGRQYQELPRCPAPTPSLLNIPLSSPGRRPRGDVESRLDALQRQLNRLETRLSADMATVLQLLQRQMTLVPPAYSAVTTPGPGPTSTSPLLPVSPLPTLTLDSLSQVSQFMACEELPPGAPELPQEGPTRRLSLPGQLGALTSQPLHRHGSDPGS
row,Structure (SMILES),"hERG current change (%, negative = inhibition) at 1uM"
1,CCOC(=O)CSc1n[nH]c(NC(=O)c2cccc(C)c2)n1,-2.38%
2,Cc1cc(N2CCN(C)CC2)nc2ccc(NC(=S)N3CCC4(CC3)OCCO4)cc12,-0.018%
3,O=C1OC(=O)c2cc([N+](=O)[O-])ccc21,17.8%
4,COc1ccc(CCNC(=O)c2c(C)nn(CC(C)C)c2Cl)cc1OC,4.57%
5,COc1ccc(C/C(C)=N/NC(=O)c2ccc(C)cc2C)cc1,4.76%
6,O=C(Nc1ccccc1N1CCOCC1)c1ccccc1[N+](=O)[O-],4.36%
7,O=C(NCCCNC(=O)c1ccc(-c2cccc(Cl)c2)o1)c1cnccn1,-12.5%
8,CCOC(=O)CC(=O)CSc1nc2c(sc(=S)n2-c2ccccc2)c(=O)[nH]1,8.72%
9,CC(=O)N1CCN=C1SCc1ccccc1F,14%
10,CC(C)(C)c1cc(NC(=O)c2ccco2)n(-c2ccccc2)n1,11.4%
11,Cc1c(Cl)cccc1NC(=O)CCC(=O)NNC(=O)c1ccco1,18.6%
12,Cc1nn(-c2ccccc2)c(C)c1NC(=O)COC(=O)c1ccc(NC(=O)CC#N)cc1,14.2%
13,C=CCc1cccc(CNc2nc3ccccc3n2CCC)c1O,12.6%
14,COc1ccc(CCNS(=O)(=O)CCNC(=O)c2ccc(OC)cc2)cc1,-0.204%
15,COC(=O)c1ccc2c(=O)n(Cc3ccco3)c(SCC(=O)Nc3ccc(C)c(Cl)c3)nc2c1,13.4%
16,COc1ccc(CCNC(=O)C(=O)NCC2CCCN2S(=O)(=O)c2ccc(OC)cc2)cc1 (stereo not drawn),3.79%
17,Cc1cccc(NS(=O)(=O)c2ccc(Oc3ccccc3)cc2)n1,-4.48%
18,COc1ccc(CNC(=O)CCS(=O)(=O)Cc2cccc(Cl)c2)c(OC)c1,17.9%
19,COc1ccc(OCC(=O)NC(=S)NNC(=O)COc2ccc(Br)cc2Cl)cc1,15.7%
20,O=C(NCCCO)c1cc2c(cn1)[nH]c1ccccc12,9.16%
21,COc1ccccc1OCCCC(=O)Nc1nnc(C2CCCO2)s1 (stereo not drawn),11.2%
22,O=C(CSc1nnc(-c2ccc(F)cc2)o1)N1CCN(C(=O)c2ccco2)CC1,-13.2%

row,Structure (SMILES),"hERG current change (%, negative = inhibition) at 1uM"
1,CCOC(=O)c1sc(C)c2c1NC(C)(c1ccccc1)NC2=O (stereo not drawn),5.72%
2,O=C(CC1C(=O)NCCN1Cc1ccccc1F)NC1CCCCCC1 (stereo not drawn),14%
3,Cc1ccc(OCC(=O)Nc2cnn(CCCC(=O)O)c2)c([N+](=O)[O-])c1,11.3%
4,O=C(Cc1ccccc1)NC1CCN(S(=O)(=O)c2ccc(C(=O)O)cc2)CC1,12.6%
5,COc1ccc(C)cc1N(CC(=O)Nc1ccc(S(=O)(=O)N2CCCC2)cc1)S(C)(=O)=O,14.6%
6,CC(=O)Nc1cccc(OC(=O)COc2ccc(Br)cc2)c1,9.27%
7,O=C1NCCCC1C(=O)N/N=C/c1cccc(Cl)c1 (stereo not drawn),11.3%
8,CCOc1ccccc1NC(=O)NCc1ccc2c(c1)OCO2,8.26%
9,COc1ccc(C(=O)Nc2nnc(CCc3ccccc3)s2)c(OC)c1,13.9%
10,O=C(Nc1ccc(N2CCOCC2)c([N+](=O)[O-])c1)c1ccco1,4.62%
11,Cn1c(Cl)c(C(=O)Nc2ccc(Cl)cc2)c2ccccc21,14.4%
12,CN(C1CCCCC1)S(=O)(=O)c1ccc(S(=O)(=O)N2CCN(CCC#N)CC2)cc1,6.08%
13,O=C(CN1C(=O)NC2(CCCC2)C1=O)Nc1cccc(C(F)(F)F)c1,13.4%
14,COc1cc(C2/C(=C(\O)c3ccc4c(c3)OCCO4)C(=O)C(=O)N2c2nnc(C)s2)cc(OC)c1OC (stereo not drawn),9.63%
15,CS(=O)(=O)N1CCN(c2ccc(C(=O)NC34CC5CC(CC(C5)C3)C4)cc2[N+](=O)[O-])CC1,9.04%
16,CCOC(=O)N1CCC(NC(=O)c2ccc3c(Cl)c4c(nc3c2)CCCC4)CC1,-3.34%
17,CC(C)COC(=O)NCC12C=CC(O1)C1C(=O)N(c3ccc(Cl)cc3)C(=O)C12 (stereo not drawn),4.66%
18,CC(Nc1ncnc2ccccc12)c1ccccc1 (stereo not drawn),13.3%
19,CC(C)C(=O)N1CCN(c2c(Cl)cccc2[N+](=O)[O-])CC1,5.7%
20,CC1CCCN(C(=O)COc2ccc(Nc3ccccc3)cc2)C1 (stereo not drawn),5.73%
21,O=c1c2[nH]c3ccccc3c2ncn1CCN1CCOCC1,4.05%
22,Cc1cccc(C)c1NC(=O)CSc1nnc(C)n1CC1CCCO1 (stereo not drawn),15.4%

row,Structure (SMILES),"hERG current change (%, negative = inhibition) at 1uM"
1,Cc1cc(N2C(=O)C3C4C=CC(C4)C3C2=O)ccc1Br (stereo not drawn),13.3%
2,O=C1CCC(=O)N1c1nc2nc(-c3ccccc3)cc(=O)n2[nH]1,21.1%
3,CCNC(=O)CSc1nc2cc(S(=O)(=O)Nc3ccc(OC)cc3)ccc2o1,12%
4,C=CCN1C(=O)C(CC(=O)Nc2ccc(OC)cc2)N(Cc2ccco2)C1=S (stereo not drawn),-7.23%
5,Cc1ccccc1Oc1ncccc1C(=O)/C(C#N)=C/N(C)C,2.98%
6,CCOc1ccccc1NC(=O)C1CCCN(S(=O)(=O)c2ccc(OC)c(C)c2)C1 (stereo not drawn),6.34%
7,Cc1ccc(C(=O)Nc2cc(C(F)(F)F)ccc2N2CCCCC2)cc1[N+](=O)[O-],14.2%
8,Cc1ccc(S(=O)(=O)N(C)c2ccc(OCC(=O)O)cc2)cc1,3.13%
9,CCOC(=O)C1=C(C)NC(=S)NC1C (stereo not drawn),1.28%
10,Cc1ccc(C(=O)/C=C/NCc2ccc(F)cc2)cc1,11.6%
11,COc1ccc2nc(NC(=O)CCn3cccc3)sc2c1,-0.35%
12,Cc1nc(SCC(=O)Nc2nnc(C(C)C)s2)n[nH]1,15.3%
13,NS(=O)(=O)c1ccc(-c2ccc(/C=N/NC(=O)c3ccc([N+](=O)[O-])cc3)o2)cc1,14.5%
14,COC(=O)c1cc(C(=O)Nc2ccc(C)cn2)cc([N+](=O)[O-])c1,3.12%
15,CCOc1ccc(N2C(=O)C(c3ccccc3)=C(c3nc4ccccc4s3)C2NC(C)=O)cc1 (stereo not drawn),1.03%
16,COC(=O)c1ccc(/C=N/n2cnnc2)cc1,12.7%
17,COc1ccc(-n2nnnc2SCC(=O)c2ccc(O)c(O)c2)cc1,1.49%
18,CCC(=O)N1CCCc2cc(S(=O)(=O)CCC(=O)Nc3ccccc3C)ccc21,6.44%
19,Cc1ccc(S(=O)(=O)N2CCN(C(=O)COC(=O)c3cccnc3Cl)CC2)c(C)c1,5.86%
20,Cc1ccc(NC(=O)C2CC(O)CN2C(=O)OCc2ccccc2)c(C)c1 (stereo not drawn),10.5%
21,CC(C)NS(=O)(=O)c1ccc(CCC(=O)NCc2ccco2)cc1,8.06%
22,CCCCOC(=O)Nc1ccc(C(N)=O)cc1,1.76%

row,Structure (SMILES),"hERG current change (%, negative = inhibition) at 1uM"
1,Cc1cc(C)cc(NC(=O)COC(=O)CCC2CCCC2)c1,7.98%
2,O=C(Cn1cnc2ccccc21)Nc1ccc2c(c1)OCCCO2,4.48%
3,O=S(=O)(c1cccs1)N1CCCc2cccc(O)c21,14.1%
4,C=CCN1C(=O)C(Cc2ccc(OCC)cc2)S/C1=N\N=C\c1cccs1 (stereo not drawn),8.01%
5,Clc1cc(Cl)cc(NC2=NCCS2)c1,-0.763%
6,CC(C)(C)OC(=O)N[C@H](C(=O)OC(C)(C)C)c1ccc2ccccc2c1,6.32%
7,COC(=O)c1ccc(NS(=O)(=O)c2cccc3cccnc23)cc1,18.7%
8,O=C1/C(=C\c2ccc(-c3ccccc3Cl)o2)SC(=S)N1CC1CCCO1 (stereo not drawn),11.4%
9,Cc1ccc(C(=O)Oc2cccc(NC(=O)c3ccco3)c2)cc1S(=O)(=O)N1CCC(C)CC1,-7.04%
10,O=S1(=O)N=C(Nc2ccc(O)c(CN3CCCCC3)c2)c2ccccc21,6.69%
11,COC(=O)c1ccccc1NC(=O)C1CCN(c2ncnc3c2nc2n3CCCCC2)CC1,12.7%
12,CCn1cc(CN2CCC(C(=O)Nc3cccc(-c4cccc(Cl)c4)c3)CC2)cn1,-34.4%
13,O=C(Cc1cccs1)N/N=C/C=C/c1ccco1,6.05%
14,CC(=O)c1ccc(N2CCN(S(=O)(=O)c3ccccc3)CC2)c(F)c1,13.7%
15,NC(=S)N=Nc1c(O)n(CC(=O)Nc2ccccc2)c2ccccc12,14.5%
16,COC(=O)[C@@]1(Cc2ccc(OC)cc2)[C@H]2c3cc(C(=O)N4CCCC4)n(CCn4cc([N+](=O)[O-])nc4C)c3C[C@H]2CN1C(=O)c1ccccc1,13.3%
17,CC(C)CC(CO)N1CCN(C(=O)c2ccc(Cl)c(Cl)c2)CCC1=O (stereo not drawn),8.29%
18,CCOc1cccc(CNc2ccc(O)cc2)c1OCc1ccc(Cl)cc1Cl,10.8%
19,CCNC(=S)N/N=C(\C)c1ccc(N2CCOCC2)cc1,18.7%
20,Nc1nc2c(C(=O)N3CCOCC3)nnn2c2ccccc12,17.5%
21,O=C(COC(=O)C1CCN(c2ccc(C(F)(F)F)cn2)CC1)Nc1cc(F)ccc1F,12.4%

# From paper PMC4336329 (PLoS ONE, 2015)
